# The list shows a part of the results.
# B1: AFCNVH (Aspergillus fumigatus) (protein)
# chain: MSLRGFHTTCDTIVLKDKHILSSRCKRPDGTYSFSEIDLNDCLGNNNGKFVWGGESFVDSASQVNLALEGGEGRPMLHAQLNDWHGSVQSASVNLGECIQNEAGGLEYMHC
# Key:
# Test in all cases: glycan array binding signal (z-score within array); higher = stronger binding
# Conditions in all cases: glycan notation: IUPAC condensed, linker removed
# [1] = target: Fuc(a1-2)[GalNAc(b1-3)]Gal
# Outline: (§1)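 Columns mapping to the same glycan were averaged after glycan names were converted to IUPAC-condensed notation. The data come from 3228 arrays in the Consortium for Functional Glycomics database, limited to those with an available protein sequence. Binding is reported as a within-array Z-score averaged across arrays of one protein sequence and across linkers.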
# Fuc(a1-3)GlcNAc = target: Fuc(a1-3)GlcNAc
# Outline: as §1
# [2] = target: Fuc(a1-3)[Gal(b1-4)]Glc6S
# Outline: as §1
# [3] = target: Fuc(a1-3)[Gal(b1-4)]GlcNAc
# Outline: as §1
# [4] = target: Fuc(a1-3)[Gal(b1-4)]GlcNAc(b1-2)Man
# Outline: as §1
# [5] = target: Fuc(a1-3)[Gal(b1-4)]GlcNAc(b1-2)Man(a1-3)[Fuc(a1-3)[Gal(b1-4)]GlcNAc(b1-2)Man(a1-6)]Man(b1-4)GlcNAc(b1-4)GlcNAc
# Outline: as §1
# [6] = target: Fuc(a1-3)[Gal(b1-4)]GlcNAc(b1-2)Man(a1-3)[Fuc(a1-3)[Gal(b1-4)]GlcNAc(b1-2)Man(a1-6)]Man(b1-4)GlcNAc(b1-4)[Fuc(a1-6)]GlcNAc
# Outline: as §1
# [7] = target: Fuc(a1-3)[Gal(b1-4)]GlcNAc(b1-3)Gal(b1-3)[Fuc(a1-4)]GlcNAc
# Outline: as §1
# [8] = target: Fuc(a1-3)[Gal(b1-4)]GlcNAc(b1-3)Gal(b1-4)[Fuc(a1-3)]GlcNAc
# Outline: as §1
# [9] = target: Fuc(a1-3)[Gal(b1-4)]GlcNAc(b1-3)Gal(b1-4)[Fuc(a1-3)]GlcNAc(b1-3)Gal(b1-4)[Fuc(a1-3)]GlcNAc
# Outline: as §1
# [10] = target: Fuc(a1-3)[Gal(b1-4)]GlcNAc(b1-3)GalNAc
# Outline: as §1
# [11] = target: Fuc(a1-3)[Gal(b1-4)]GlcNAc(b1-6)GalNAc
# Outline: as §1
# [12] = target: Fuc(a1-3)[Gal(b1-4)]GlcNAc(b1-6)[Gal(b1-3)GlcNAc(b1-3)]Gal(b1-4)Glc
# Outline: as §1
# [13] = target: Fuc(a1-3)[Gal(b1-4)]GlcNAc6S
# Outline: as §1
# [14] = target: Fuc(a1-3)[Gal3S(b1-4)]Glc
# Outline: as §1
# [15] = target: Fuc(a1-3)[Gal3S(b1-4)]GlcNAc
# Outline: as §1
# [16] = target: Fuc(a1-3)[Gal3S(b1-4)]GlcNAc6S
# Outline: as §1
# [17] = target: Fuc(a1-3)[GalNAc(b1-4)]GlcNAc
# Outline: as §1
# [18] = target: Fuc(a1-3)[GalNAc(b1-4)]GlcNAc6S
# Outline: as §1
# Fuc(a1-4)GlcNAc = target: Fuc(a1-4)GlcNAc
# Outline: as §1
# Fuc(b1-3)GlcNAc = target: Fuc(b1-3)GlcNAc
# Outline: as §1
# Gal(a1-2)Gal = target: Gal(a1-2)Gal
# Outline: as §1
# Gal(a1-3)Gal = target: Gal(a1-3)Gal
# Outline: as §1
# Gal(a1-3)Gal(b1-3)GlcNAc = target: Gal(a1-3)Gal(b1-3)GlcNAc
# Outline: as §1
# [19] = target: Gal(a1-3)Gal(b1-3)GlcNAc(b1-2)Man
# Outline: as §1
# [20] = target: Gal(a1-3)Gal(b1-3)GlcNAc(b1-2)Man(a1-3)[Gal(a1-3)Gal(b1-3)GlcNAc(b1-2)Man(a1-6)]Man(b1-4)GlcNAc(b1-4)GlcNAc
# Outline: as §1
# [21] = target: Gal(a1-3)Gal(b1-3)GlcNAc(b1-3)GalNAc
# Outline: as §1
# [22] = target: Gal(a1-3)Gal(b1-3)GlcNAc(b1-6)GalNAc
# Outline: as §1
# [23] = target: Gal(a1-3)Gal(b1-3)[Fuc(a1-4)]GlcNAc(b1-2)Man(a1-3)[Gal(a1-3)Gal(b1-3)[Fuc(a1-4)]GlcNAc(b1-2)Man(a1-6)]Man(b1-4)GlcNAc(b1-4)GlcNAc
# Outline: as §1
# Gal(a1-3)Gal(b1-4)Glc = target: Gal(a1-3)Gal(b1-4)Glc
# Outline: as §1
# Gal(a1-3)Gal(b1-4)GlcNAc = target: Gal(a1-3)Gal(b1-4)GlcNAc
# Outline: as §1
# [24] = target: Gal(a1-3)Gal(b1-4)GlcNAc(b1-2)Man
# Outline: as §1
# [25] = target: Gal(a1-3)Gal(b1-4)GlcNAc(b1-2)Man(a1-3)[Gal(a1-3)Gal(b1-4)GlcNAc(b1-2)Man(a1-6)]Man(b1-4)GlcNAc(b1-4)GlcNAc
# Outline: as §1
# [26] = target: Gal(a1-3)Gal(b1-4)GlcNAc(b1-3)GalNAc
# Outline: as §1
# [27] = target: Gal(a1-3)Gal(b1-4)GlcNAc(b1-6)GalNAc
# Outline: as §1
# [28] = target: Gal(a1-3)Gal(b1-4)[Fuc(a1-3)]GlcNAc
# Outline: as §1
# [29] = target: Gal(a1-3)Gal(b1-4)[Fuc(a1-3)]GlcNAc(b1-2)Man(a1-3)[Gal(a1-3)Gal(b1-4)[Fuc(a1-3)]GlcNAc(b1-2)Man(a1-6)]Man(b1-4)GlcNAc(b1-4)GlcNAc
# Outline: as §1
# Gal(a1-3)GalNAc = target: Gal(a1-3)GalNAc
# Outline: as §1
# [30] = target: Gal(a1-3)[Gal(a1-4)]Gal(b1-4)GlcNAc
# Outline: as §1
# [31] = target: Gal(a1-4)Gal(b1-3)GlcNAc(b1-2)Man(a1-3)[Gal(a1-4)Gal(b1-3)GlcNAc(b1-2)Man(a1-6)]Man(b1-4)GlcNAc(b1-4)GlcNAc
# Outline: as §1
# Gal(a1-4)Gal(b1-4)Glc = target: Gal(a1-4)Gal(b1-4)Glc
# Outline: as §1
# Gal(a1-4)Gal(b1-4)GlcNAc = target: Gal(a1-4)Gal(b1-4)GlcNAc
# Outline: as §1
# [32] = target: Gal(a1-4)Gal(b1-4)GlcNAc(b1-2)Man(a1-3)[Gal(a1-4)Gal(b1-4)GlcNAc(b1-2)Man(a1-6)]Man(b1-4)GlcNAc(b1-4)GlcNAc
# Outline: as §1
# [33] = target: Gal(a1-4)Gal(b1-4)GlcNAc(b1-3)Gal(b1-4)Glc
# Outline: as §1
# Gal(a1-4)GlcNAc = target: Gal(a1-4)GlcNAc
# Outline: as §1
binder,measurement,setting,value
B1,glycan array binding signal (z-score),[1],-0.464
same,glycan array binding signal (z-score),Fuc(a1-3)GlcNAc,-0.326
same,glycan array binding signal (z-score),[2],-0.331
same,glycan array binding signal (z-score),[3],-0.303
same,glycan array binding signal (z-score),[4],-0.452
same,glycan array binding signal (z-score),[5],-0.414
same,glycan array binding signal (z-score),[6],-0.319
same,glycan array binding signal (z-score),[7],-0.304
same,glycan array binding signal (z-score),[8],-0.255
same,glycan array binding signal (z-score),[9],-0.509
same,glycan array binding signal (z-score),[10],-0.43
same,glycan array binding signal (z-score),[11],-0.537
same,glycan array binding signal (z-score),[12],-0.33
same,glycan array binding signal (z-score),[13],-0.372
same,glycan array binding signal (z-score),[14],-0.437
same,glycan array binding signal (z-score),[15],-0.558
same,glycan array binding signal (z-score),[16],-0.402
same,glycan array binding signal (z-score),[17],1.74
same,glycan array binding signal (z-score),[18],0.612
same,glycan array binding signal (z-score),Fuc(a1-4)GlcNAc,-0.222
same,glycan array binding signal (z-score),Fuc(b1-3)GlcNAc,-0.244
same,glycan array binding signal (z-score),Gal(a1-2)Gal,-0.275
same,glycan array binding signal (z-score),Gal(a1-3)Gal,-0.278
same,glycan array binding signal (z-score),Gal(a1-3)Gal(b1-3)GlcNAc,-0.453
same,glycan array binding signal (z-score),[19],-0.438
same,glycan array binding signal (z-score),[20],-0.55
same,glycan array binding signal (z-score),[21],-0.297
same,glycan array binding signal (z-score),[22],-0.422
same,glycan array binding signal (z-score),[23],-0.042
same,glycan array binding signal (z-score),Gal(a1-3)Gal(b1-4)Glc,-0.399
same,glycan array binding signal (z-score),Gal(a1-3)Gal(b1-4)GlcNAc,-0.087
same,glycan array binding signal (z-score),[24],-0.603
same,glycan array binding signal (z-score),[25],-0.229
same,glycan array binding signal (z-score),[26],-0.327
same,glycan array binding signal (z-score),[27],-0.361
same,glycan array binding signal (z-score),[28],-0.4
same,glycan array binding signal (z-score),[29],-0.335
same,glycan array binding signal (z-score),Gal(a1-3)GalNAc,-0.37
same,glycan array binding signal (z-score),[30],1.37
same,glycan array binding signal (z-score),[31],-0.157
same,glycan array binding signal (z-score),Gal(a1-4)Gal(b1-4)Glc,-0.428
same,glycan array binding signal (z-score),Gal(a1-4)Gal(b1-4)GlcNAc,0.107
same,glycan array binding signal (z-score),[32],-0.371
same,glycan array binding signal (z-score),[33],-0.082
same,glycan array binding signal (z-score),Gal(a1-4)GlcNAc,-0.404
